Paper PMC1479330
No constants are given. Whether binding was seen depends on the method and setting. In cells and extracts the contact can be indirect. Some results given as binding are weak or reduced against the parent protein; the word gives no strength.

Sequences of proteins named here, by UniProt entry; tags and fusion partners are left off.
UniProt P63208: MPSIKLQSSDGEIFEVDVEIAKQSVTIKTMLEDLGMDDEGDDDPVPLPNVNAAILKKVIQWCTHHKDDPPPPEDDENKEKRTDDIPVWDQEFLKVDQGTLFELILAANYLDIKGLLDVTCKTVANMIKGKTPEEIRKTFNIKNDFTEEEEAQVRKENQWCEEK

Assays:
[1] = target: alpha 6 subunit of the 20S proteasome (human (endogenous in HeLa and 293T)) (UniProt P25786); assay: co-IP; HeLa cell lysate immunoprecipitated with monoclonal antibodies to the alpha 6, alpha 2 or alpha 4 subunit of the 20S proteasome; immunoblot
[2] = target: FLAG-tagged Cul1 (aa 1-645) (UniProt Q13616); assay: co-IP; 293T cells transfected with FLAG-tagged Cul1 or deletion mutants; extracts immunoprecipitated with an antibody to the FLAG epitope; immunoblot
[3] = target: FLAG-tagged full-length Cul1 (aa 1-776) (UniProt Q13616); assay: as above
[4] = target: FLAG-tagged Cul1 (aa 1-452) (UniProt Q13616); assay: as above
[5] = target: FLAG-tagged Cul1 (aa 1-300) (UniProt Q13616); assay: as above
[6] = target: FLAG-tagged Cul1 (aa 324-776) (UniProt Q13616); assay: as above

binding [1] | binding [2] | binding [3] | binding [4] | binding [5] | binding [6] | Substance
binds | – | – | – | – | – | Skp1 (from UniProt P63208 1-163)
– | binds | binds | binds | binds | no binding | alpha 6 subunit of the 20S proteasome (from UniProt P25786 1-263)
